Test results as given in the supplement of paper PMC8728848.
The other results are listed elsewhere or left out.

Assays:
Assay in all cases: glycan array binding signal (z-score within array); higher = stronger binding
Conditions in all cases: glycan notation: IUPAC condensed, linker removed
[1] = target: Neu5Ac(a2-3)Gal(b1-3)GlcNAc(b1-6)GalNAc
How it was run: (§1)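 Glycan array data came from 3228 arrays in the Consortium for Functional Glycomics database, and only arrays with an available protein sequence were kept. Glycan names were put into IUPAC-condensed notation, and columns mapping to the same glycan were averaged. The binding signal is a within-array Z-score, averaged across arrays of one protein sequence run at different concentrations or buffers and across linkers. A negative Z-score can be read as non-binding.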

[2] = target: Neu5Ac(a2-3)Gal(b1-3)GlcNAc6S
How it was run: as §1

[3] = target: Neu5Ac(a2-3)Gal(b1-3)[Fuc(a1-4)]GlcNAc
How it was run: as §1

[4] = target: Neu5Ac(a2-3)Gal(b1-3)[Fuc(a1-4)]GlcNAc(b1-3)Gal(b1-3)[Fuc(a1-4)]GlcNAc
How it was run: as §1

[5] = target: Neu5Ac(a2-3)Gal(b1-3)[Fuc(a1-4)]GlcNAc(b1-3)Gal(b1-4)[Fuc(a1-3)]GlcNAc
How it was run: as §1

[6] = target: Neu5Ac(a2-3)Gal(b1-3)[GlcNAc(b1-6)]GalNAc
How it was run: as §1

[7] = target: Neu5Ac(a2-3)Gal(b1-3)[Neu5Ac(a2-6)]GalNAc
How it was run: as §1

[8] = target: Neu5Ac(a2-3)Gal(b1-3)[Neu5Ac(a2-6)]GlcNAc(b1-3)[Fuc(a1-3)[Gal(b1-4)]GlcNAc(b1-6)]Gal(b1-4)Glc
How it was run: as §1

[9] = target: Neu5Ac(a2-3)Gal(b1-3)]Neu5Ac(a2-3)Gal(b1-4)]GlcNAc
How it was run: as §1

Neu5Ac(a2-3)Gal(b1-4)Glc = target: Neu5Ac(a2-3)Gal(b1-4)Glc
How it was run: as §1

[10] = target: Neu5Ac(a2-3)Gal(b1-4)GlcNAc
How it was run: as §1

[11] = target: Neu5Ac(a2-3)Gal(b1-4)GlcNAc(b1-2)Man
How it was run: as §1

[12] = target: Neu5Ac(a2-3)Gal(b1-4)GlcNAc(b1-2)Man(a1-3)[GlcNAc(b1-4)][Neu5Ac(a2-3)Gal(b1-4)GlcNAc(b1-2)Man(a1-6)]Man(b1-4)GlcNAc(b1-4)GlcNAc
How it was run: as §1

[13] = target: Neu5Ac(a2-3)Gal(b1-4)GlcNAc(b1-2)Man(a1-3)[Neu5Ac(a2-3)Gal(b1-4)GlcNAc(b1-2)Man(a1-6)]Man(b1-4)GlcNAc(b1-4)GlcNAc
How it was run: as §1

[14] = target: Neu5Ac(a2-3)Gal(b1-4)GlcNAc(b1-2)Man(a1-3)[Neu5Ac(a2-3)Gal(b1-4)GlcNAc(b1-2)Man(a1-6)]Man(b1-4)GlcNAc(b1-4)[Fuc(a1-6)]GlcNAc
How it was run: as §1

[15] = target: Neu5Ac(a2-3)Gal(b1-4)GlcNAc(b1-2)Man(a1-3)[Neu5Ac(a2-6)Gal(b1-4)GlcNAc(b1-2)Man(a1-6)]Man(b1-4)GlcNAc(b1-4)GlcNAc
How it was run: as §1

[16] = target: Neu5Ac(a2-3)Gal(b1-4)GlcNAc(b1-2)[Neu5Ac(a2-3)Gal(b1-4)GlcNAc(b1-4)]Man(a1-3)[GlcNAc(b1-4)][Neu5Ac(a2-3)Gal(b1-4)GlcNAc(b1-2)[Neu5Ac(a2-3)Gal(b1-4)GlcNAc(b1-6)]Man(a1-6)]Man(b1-4)GlcNAc(b1-4)GlcNAc
How it was run: as §1

[17] = target: Neu5Ac(a2-3)Gal(b1-4)GlcNAc(b1-2)[Neu5Ac(a2-3)Gal(b1-4)GlcNAc(b1-4)]Man(a1-3)[GlcNAc(b1-4)][Neu5Ac(a2-3)Gal(b1-4)GlcNAc(b1-4)Man(a1-6)]Man(b1-4)GlcNAc(b1-4)GlcNAc
How it was run: as §1

[18] = target: Neu5Ac(a2-3)Gal(b1-4)GlcNAc(b1-2)[Neu5Ac(a2-3)Gal(b1-4)GlcNAc(b1-6)]Man(a1-6)[Neu5Ac(a2-3)Gal(b1-4)GlcNAc(b1-2)Man(a1-3)][GlcNAc(b1-4)]Man(b1-4)GlcNAc(b1-4)GlcNAc
How it was run: as §1

[19] = target: Neu5Ac(a2-3)Gal(b1-4)GlcNAc(b1-3)Gal
How it was run: as §1

[20] = target: Neu5Ac(a2-3)Gal(b1-4)GlcNAc(b1-3)Gal(b1-3)GlcNAc
How it was run: as §1

[21] = target: Neu5Ac(a2-3)Gal(b1-4)GlcNAc(b1-3)Gal(b1-4)GlcNAc
How it was run: as §1

B1: InvD YPIII (Yersinia pseudotuberculosis), B1JSC0 (protein)
chain: MIKYFSFFKKPEPIVGILPNRQSHHILPTHIRRVAWGTLLLQLFIPLSVSFSPAIAAMKASKADTMVSYSSTEPYVLGSGETVAMVAKKYGITVDELKKINIYRTFSRPFTALTTGDEIDIPRKASPFSVDNNKDNRLSVENTLAGHAVAGATALSNGDVAKSGERMVRSAASNEFNNSAQQWLSQFGTARVQLNINDDFHLDGSAADVLIPLYDNEKSILFTQLGARNKDSRNTVNMGAGVRTFQGNWMYGANTFFDNDLTGKNRRIGVGAEAWTDYLKLSANNYFGITDWHQSRDFIDYNERPANGYDLRAEAYLPSYPQLGGKAMYEKYRGDDVALFGKDNRQKNPHAITAGVNYTPIPLVTIGAEHRAGKGGQNDSNINFQLNYRLGETWQSHIDPSAVAASRTLAGSRYDLVERNNHIVLDYQKQNLVRLSLPDSLAGDPFSQLSVTAQVTATHGLERIDWQSAELMAAGGVLKQTSKNGLEITLPEYQMNRTGGNSYILNAIAYDTQGNASSQASMLITVNAQKINIANSTLVAVPINIEANNSDTSVVTLTLKDDNNIPVTGQDVTFLSPLGTLSAMTDSGNGVYTATLTAGTVSGTTAVSSNINGSALDMTPATVTLNGNSGELSITHSMLVAAPVNIEANGSDTSVVTLTLRDSNNNPVTGQTVTFAGTLGTLGAVTEGSSGVYTATLTAGIMVGTSSITASVNSTALGVTPATVTLNGDSGNLSTTNSTLVAAPVNIEANSSDTSVVTLTLRDNNNNPVTGQTVVFTSTLGTLGNVTEQASGVYTATLTAGTVSGVASLSVSVGGNALGVTPATVTLNGDSGNLSTTNSTLVAAPVNIEANSSDTSVVTLTLRDNNNNPVTGQTVNFAGTLGTLGTVSEGSSGVYTTTLTAGTVAGVASLSVNVGGNALGVTPATVTLNGNSGNLSATNSTLVAAPVNIEANSSDTSVVTLTLRDNNNNPVTGQTVAFTSTLGTLGNVTEQASGVYTATLTAGTVSGVASLSVSVNSNALGVTPATVTLNGDSGNLSTTNSTLVAAPVNIEANSSDTSVVTLTLRDNNNNPVTGQTVAFTSTLGTLGNVTEQASGLYTATLTAGTVSGVASLSVNVGGNALGVTPATVTLNGDSGNLSATNSTLVAAPVNIEANSSDTSVVTLTLRDNNNNPVTGQTVAFTSTLGTLGNVTEQASGLYTATLTAGTVSGVASLSVNVGGTALGVTPATVTLNGDSGNLSTTNSTLVAAPVNIEANSSDTSVVTLTLRDNNNNPVTGQTVAFTSTLGTLGNVTEQASGLYTATLTAGTVSGVASLSVSVNSTALGVTPATVTLNGDSGNLSTTNSTLVAAPVNIEANSSDTSVVTLTLRDNNNNPVTGQTVAFTSTLGTLGNVTEQASGVYTATLTAGTVAGVASLSVNVGGNALGVTPATVTLNGDSGNLSTTNSTLVAAPVNIEANSSDTSVVTLTLRDNNNNPVTGQTVAFTSTLGTLGNVTEQASGVYTATLTAGTVSGVASLSVSVGSSALGVTPATVTLNGDSGNLSTTNSTLVAAPVNIEANNSDTSVVTLTLRDNNNNPVTGQTVAFTSTLGTLGNVTEQASGVYTATLTAGTVSGVASLSVSVNSNALGVTPATVTLNGDSGNLSTTNSTLVAAPVNIEANSSDTSVVTLTLRDNNNNPVTGQTVVFTSTLGTLGNVTEQASGLYTATLTAGTVSGVASLSVSVGGNALGVTGNITLAPGALDAARSILAVNKPSINADDRIGSTITFTAQDAQGNAITGLDIAFMTDLENSQIMTLVDHNDGTYTANINGTQTGIANIAVQSSGATIAGLAATMVTITPGAWNTTQATPVMTVALPITTCQSSSGVYKRYYIGIVTHELYDNYGNEISGILTYNLGAGRYTTVTSQNSSVSGSNGLTRRSNSPVSHFILTSDAYTSQAACYAERIANVNVTITVTAITDDFKTSAVNKVFILGTGSN
Q: Which results are given for B1?
A: glycan array binding signal (z-score) [1]: -0.277; glycan array binding signal (z-score) [2]: -0.22; glycan array binding signal (z-score) [3]: -0.332; glycan array binding signal (z-score) [4]: 0.718; glycan array binding signal (z-score) [5]: 0.138; glycan array binding signal (z-score) [6]: 0.045; glycan array binding signal (z-score) [7]: -0.328; glycan array binding signal (z-score) [8]: -0.009; glycan array binding signal (z-score) [9]: 0.034; glycan array binding signal (z-score) (Neu5Ac(a2-3)Gal(b1-4)Glc): 0.185; glycan array binding signal (z-score) [10]: 0.187; glycan array binding signal (z-score) [11]: 1.15; glycan array binding signal (z-score) [12]: -0.266; glycan array binding signal (z-score) [13]: -0.142; glycan array binding signal (z-score) [14]: -0.311; glycan array binding signal (z-score) [15]: -0.158; glycan array binding signal (z-score) [16]: 0.508; glycan array binding signal (z-score) [17]: -0.203; glycan array binding signal (z-score) [18]: -0.322; glycan array binding signal (z-score) [19]: -0.329; glycan array binding signal (z-score) [20]: -0.129; glycan array binding signal (z-score) [21]: -0.005
